# Data as given in the supplement of paper PMC5499739.
# The full ranking holds about 16,000 sequences; the median of “Z-score” is about -0.37, and the highest 2% start at about 3.2. Some of the results follow.
# System: RBM10 RRM1-ZnF (GST-tagged construct)
# Test: RNAcompete 7-mer binding Z-score; higher = stronger binding preference
# In short: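 Bound RNA was identified by microarray hybridisation after GST-tagged RBM10 constructs (20 pmol) had been mixed with 1.5 nmol of a designed pool of 241 399 RNAs up to 41 nt, transcribed from microarray-derived DNA templates. Binding ran for 30 min at 4°C in 1 ml Hepes pH 7.8 buffer with KCl, NaCl, glycerol, DTT, BSA and glutathione Sepharose beads, with four 2-min washes at 4°C afterwards. For every heptamer motif, a one-sided Z-score for enrichment was computed across the probes that contained it.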
row,Sequence,RNAcompete 7-mer binding Z-score
1,GCAGACA,0.056
2,GUUCUCC,-0.587
3,UUGUACG,-0.279
4,CGCAAAG,-0.214
5,GGUUUUG,2.03
6,AACUUGU,-0.597
7,CACUUUU,-0.85
8,UAGGUGU,1.7
9,GUCACCA,-0.493
10,AAGCCCA,-0.681
11,CAGAUAC,-0.584
12,CGAACGC,-0.34
13,GGUCAGG,2.79
14,CCUAACG,-0.707
15,GCAGGUU,1.38
16,CCUGCGG,0.27
17,GCUUAUA,-0.513
18,AGGACAG,1.09
19,CGUAGUA,-0.0739
20,CGGAGAC,0.508
21,UAUUCGC,-0.753
22,UUCUGAC,-0.789
23,CUGAACU,-0.623

row,Sequence,RNAcompete 7-mer binding Z-score
1,CGUGGGG,3.65
2,UAGGGUU,3.33
3,AGGCACA,-0.11
4,ACGGCCG,-0.461
5,AGAAAUA,-0.288
6,CCGACCA,-0.867
7,GUACAUU,-0.344
8,GACCGUU,-0.902
9,UGACGAU,0.0203
10,AAGUGUA,0.774
11,UUCAAAA,-0.691
12,CACCCCG,0.387
13,AUGCACG,0.0235
14,GAUGAGG,3.56
15,AUUGCCU,-0.857
16,CCAAGAA,-0.444
17,GAUAAAA,0.0203
18,UCGCGGU,-0.188
19,CGCGGGA,1.05
20,GCUAUAA,-0.409
21,GUGCGUC,0.0365
22,UCUAUGG,-0.383
23,AUCUUAC,-0.717

row,Sequence,RNAcompete 7-mer binding Z-score
1,ACACCCA,-0.73
2,CGAGACG,0.199
3,AGUCUAU,-0.379
4,UGCCAAU,-0.681
5,AGGUUGA,1.64
6,CGAUUCA,-0.639
7,AAGCAGU,-0.145
8,UCGUGAU,-0.389
9,CAAUGCG,-0.0512
10,AAAACAG,0.095
11,CGGCCGA,-0.613
12,ACAGUGU,0.017
13,CGCAGCA,-0.223
14,ACUUGAA,-0.535
15,CCACUUA,-0.873
16,CCCUGAA,-0.474
17,ACGUACU,-0.571
18,GGCGAUC,0.14
19,AGUGGAA,3.24
20,ACGGGCC,0.128
21,UCCUUCC,-0.681
22,AGUUGAA,0.592
23,CCAACUC,-0.727

row,Sequence,RNAcompete 7-mer binding Z-score
1,UUGAUCC,-0.785
2,CCAUCGU,-0.61
3,GCGAAUU,-0.132
4,UCGCUUC,-0.756
5,UCAGCAG,-0.00896
6,CGUCCCA,-0.587
7,UACUCCU,-0.798
8,CGGCUUA,-0.383
9,AAUUGCU,-0.506
10,AAGUACU,-0.561
11,UGGGGAU,3.57
12,AAACGGU,1.16
13,CGUCGAG,-0.0414
14,CCACUGA,-0.555
15,CAUAACG,-0.5
16,ACAACGU,-0.321
17,UCCUAAG,-0.483
18,CGGUAGA,0.933
19,CCGCCCA,-0.428
20,GCUAUUC,-0.772
21,GACUUUA,-0.724
22,GGAAUUG,2.02
23,AGGAUUC,-0.214

row,Sequence,RNAcompete 7-mer binding Z-score
1,CCUCGGG,0.423
2,AGAGGCA,0.15
3,GCUUCUU,-0.802
4,CCCUUGG,-0.269
5,AGACGGG,1.62
6,UGUUGGU,0.927
7,UUGUGGU,1.07
8,AACUCAC,-0.591
9,AUUGGUA,1.27
10,GCAAGUC,-0.415
11,GGCGGAA,1.51
12,GAGGUAU,1.78
13,UCUGACC,-0.733
14,GCUUAAC,-0.457
15,CUCGCGA,-0.759
16,ACUAGCU,-0.535
17,ACUAUAU,-0.571
18,UGGCGUC,0.173
19,GUAAGAA,0.465
20,AACCUGC,-0.74
21,AGCUCGC,-0.584
22,UACAAAU,-0.357
23,GAAGAGU,1.39

row,Sequence,RNAcompete 7-mer binding Z-score
1,GUCUUAA,-0.681
2,CAGUGUG,0.43
3,CAAACAG,-0.431
4,UCAGGUC,0.00404
5,CACCUAA,-0.652
6,GCAGAAG,1.15
7,AUACACU,-0.47
8,AUUCUCG,-0.694
9,UUUAAGA,-0.438
10,GGUUAGU,1.7
11,AUAUGCU,-0.5
12,ACUGCGU,-0.389
13,AUAGUCA,-0.269
14,GUCACAU,-0.49
15,CCUUUCC,-0.886
16,GGGGAGC,2.29
17,CCAAAAG,-0.392
18,ACAGAGC,0.0365
19,UAGCAAG,0.15
20,UAGACCA,-0.542
21,GAUCCCG,-0.675
22,UGCUUUG,-0.558
23,UCCUGAA,-0.73

row,Sequence,RNAcompete 7-mer binding Z-score
1,AUUUACC,-0.935
2,UGAUUCG,-0.334
3,AUAGUAG,0.595
4,CCCCUAU,-0.704
5,ACUCUAA,-0.685
6,ACGAAGC,-0.311
7,AAGAAGA,1.11
8,AGAGGUU,0.787
9,GAAGAAC,0.0528
10,CCCGUAC,-0.642
11,UCAGUUC,-0.805
12,CGAAAUG,0.03
13,UGCAUUG,-0.337
14,GUCUAUA,-0.607
15,UUCGGUG,0.108
16,CGAUGUC,-0.662
17,GUGAGAG,1.85
18,UGGUAUA,0.936
19,UCAAUGG,0.54
20,AAUGUCG,-0.184
21,CACUAUU,-0.776
22,UCUGCGC,-0.694
23,AGACUCA,-0.883

row,Sequence,RNAcompete 7-mer binding Z-score
1,CUCCUUC,-0.795
2,UGGCACU,0.0203
3,AUCACUA,-0.552
4,CUAUUGC,-0.714
5,AACCACU,-0.626
6,UAAGUUC,-0.522
7,CAGCGUG,0.443
8,UCCGCAA,-0.828
9,AGUGGUA,2.01
10,CCGUGCA,-0.568
11,GAGGGUG,3.75
12,GGCAGUC,0.28
13,UUGAGUG,0.602
14,AGUUCCG,-0.561
15,CUCCACA,-0.685
16,CCAGAAA,-0.717
17,CGCUAUC,-0.668
18,CCCAUAC,-0.844
19,GUGAAAC,-0.0479
20,UGGAAGA,2.63
21,UAGGGCG,2.22
22,UAGUAGC,-0.0739
